Drawing on paper PMC6956557, “Preclinical development of a novel CD47 nanobody with less toxicity and enhanced anti-cancer therapeutic potential” (Journal of Nanobiotechnology, 2020), this text covers Kd for one molecule.

One may read the Kd as the concentration at which binding is half-saturated. Lower therefore signals a tighter complex.

In this test the target is T1, HuNb1-IgG4.
T1 construct: humanized VHH of the camel anti-CD47 nanobody Nb1; VHH subcloned into the vector pFUSE-hIgG4-Fc2; also called humanized Nb1-IgG4; CD47 Nb
T1 sequence (heavy, as listed by the source): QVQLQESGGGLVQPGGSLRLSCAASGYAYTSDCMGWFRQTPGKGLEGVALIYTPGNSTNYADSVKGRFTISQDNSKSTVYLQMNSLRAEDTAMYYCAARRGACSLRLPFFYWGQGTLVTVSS
Nature of the test: BLI; Octet Red 96; Nb-IgG4 (5 μg/mL) coupled to protein A sensors, series diluted hCD47 (ECD)-Fc in solution, dissociation in PBST; 1:1 global fit. To be noted: both partners purified.

B1: hCD47 (ECD)-Fc (Fc fusion)
chain: not shown
notes: human CD47 ectodomain (ECD), […]; Cloned into a pFUSE vector; also called human CD47 (ECD)-Fc; recombinant hCD47 antigen
Molecule B1 had a Kd of 4.85 nM.
